# In paper PMC4336329 (PLoS ONE, 2015):
# Among all 310,000 compounds or so, about 2,200 (0.71%) showed an effect of 50% or more. Effects have a minus sign here. Some of the results follow.
# Molecular target: human ether-à-go-go-related gene (hERG) potassium channel (human, UniProt Q12809)
# Assay: primary screen, population patch clamp on CHO cells stably expressing hERG
# Sequence of human ether-à-go-go-related gene (hERG) potassium channel (Q12809 whole entry, looked up): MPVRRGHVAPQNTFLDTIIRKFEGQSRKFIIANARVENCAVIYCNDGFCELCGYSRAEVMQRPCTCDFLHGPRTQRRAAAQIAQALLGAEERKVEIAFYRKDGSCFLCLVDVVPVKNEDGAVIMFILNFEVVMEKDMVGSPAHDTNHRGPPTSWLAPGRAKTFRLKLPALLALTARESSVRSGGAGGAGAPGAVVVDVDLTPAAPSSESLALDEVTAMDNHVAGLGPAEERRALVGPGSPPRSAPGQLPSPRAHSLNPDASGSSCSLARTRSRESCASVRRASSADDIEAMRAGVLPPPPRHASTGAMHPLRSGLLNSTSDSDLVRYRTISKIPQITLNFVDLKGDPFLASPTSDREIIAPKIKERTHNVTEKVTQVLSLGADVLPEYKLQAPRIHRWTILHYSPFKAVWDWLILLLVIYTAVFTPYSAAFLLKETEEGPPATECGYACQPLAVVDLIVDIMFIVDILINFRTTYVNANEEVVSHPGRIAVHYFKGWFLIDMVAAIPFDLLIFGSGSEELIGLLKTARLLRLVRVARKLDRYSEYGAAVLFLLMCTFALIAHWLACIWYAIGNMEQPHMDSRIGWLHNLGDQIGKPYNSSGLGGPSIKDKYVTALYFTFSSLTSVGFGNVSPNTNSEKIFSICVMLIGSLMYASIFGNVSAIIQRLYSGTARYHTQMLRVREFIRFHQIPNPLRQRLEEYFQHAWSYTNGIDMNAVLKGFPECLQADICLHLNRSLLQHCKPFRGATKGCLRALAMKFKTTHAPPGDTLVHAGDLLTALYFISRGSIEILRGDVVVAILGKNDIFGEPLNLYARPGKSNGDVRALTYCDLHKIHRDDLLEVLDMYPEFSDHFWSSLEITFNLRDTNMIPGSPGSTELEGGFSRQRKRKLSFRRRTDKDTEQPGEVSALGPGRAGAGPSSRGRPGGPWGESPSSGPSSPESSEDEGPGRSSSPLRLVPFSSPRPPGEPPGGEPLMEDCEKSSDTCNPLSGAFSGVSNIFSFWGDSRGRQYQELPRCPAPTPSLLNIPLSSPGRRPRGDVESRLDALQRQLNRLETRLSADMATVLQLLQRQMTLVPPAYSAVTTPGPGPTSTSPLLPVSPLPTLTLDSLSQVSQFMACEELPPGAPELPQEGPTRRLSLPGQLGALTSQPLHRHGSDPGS
row,Structure (SMILES),"hERG current change (%, negative = inhibition) at 1uM [%]"
1,O=C(CSc1nncs1)NC(=O)NCc1ccccc1,11.1
2,O=C(CCN1C(=O)C2C3C=CC(C3)C2C1=O)Nc1ccccn1 (centres unmarked),5.49
3,COc1cc(/C=C/C(=O)NC2CCCCC2)cc(OC)c1OC,11.9
4,COC(=O)c1ccc(-c2noc(CN(C)CC3CCCCO3)n2)cc1 (centres unmarked),26.3
5,Cc1cccc(N2CCN(C(=O)c3ccccc3OCc3c(C)noc3C)CC2)c1C,6.54
6,Cc1nn(Cc2ccc(Cl)cc2)c(C)c1NC(=O)/C=C/c1cnn(C)c1,10
7,CCN1CN(CCc2ccccc2)CNC1=S,9.7
8,Cc1cc(C)c(-n2c(C)cc(/C=C3/NC(=O)NC3=O)c2C)c(C)c1,-1.75
9,CCOc1ccc(CSc2nc(C)cc(COC)c2C#N)cc1OCC,12.2
10,CN(CC(=O)Nc1ccncc1)S(=O)(=O)c1ccc(Br)cc1,-0.533
11,COc1ccc(N2C(=O)CSC(c3ccccc3)C2=O)cc1 (centres unmarked),21.4
12,COCC(=O)N1CCC(Oc2ccc(C(=O)N(C)Cc3nccs3)cc2)CC1,9.32
13,O=C(NCCCc1ccccc1)C1CCN(c2nnc(-n3cccc3)s2)CC1,4.33
14,CC(=O)Nc1ccc(S(=O)(=O)N2CCN(C(=O)c3ncoc3-c3ccc(C)cc3)CC2)cc1,10.9
15,Cc1ccc(NC(=O)C(C)c2cccc(C(=O)c3ccccc3)c2)cc1O (centres unmarked),-7.06
16,Cc1ccc(/C=N/NC(=O)CN2CCN(Cc3ccccc3Cl)CC2)o1,0.392
17,O=C(NCCN1CCN(C(=O)c2ccc(F)cc2)CC1)C(=O)NCc1ccccc1,-75.1
18,OCC1(Cc2ccccc2C(F)(F)F)CCN(Cc2ccccc2)CC1,3.01
19,O=C1C=C(c2cc(C(F)(F)F)cc(C(F)(F)F)c2)C[C@@H](c2ccc(Cl)cc2)C1,11
20,Cl.Oc1ccc(Cl)cc1CNCc1ccc(Cl)nc1,6.71
21,O=C(Nc1ccncc1)Nc1ccccc1Cl,7.97
22,Cc1cc(C)n2nc(C(=O)OC(C)C(=O)c3cc(C)c(C)cc3C)nc2n1 (centres unmarked),-1.08
23,CC(=O)NC(=O)c1ccc(-c2ccc(Cl)cc2)o1,9.38

row,Structure (SMILES),"hERG current change (%, negative = inhibition) at 1uM [%]"
1,CCOC(=O)C1=C(N)c2ccccc2CC1C(C)C (centres unmarked),5.94
2,CCCCc1nc2cc(C(=O)NCc3ccccn3)ccc2o1,19.9
3,CC1CCCC(NC(=O)CCC(=O)c2ccc(F)cc2)C1C (centres unmarked),7.59
4,Cc1ccc(C)c(-n2c(SCC(=O)Nc3nnc(C)s3)nnc2-c2ccoc2C)c1,10.1
5,CCOc1ccc(C(=O)Nc2nnc(SCC(=O)NCC3CCCO3)s2)cc1OCC (centres unmarked),3.82
6,O=C(Cn1cnc2c(cnn2-c2ccccc2)c1=O)Nc1cc(S(=O)(=O)N2CCOCC2)ccc1Cl,-8.68
7,CCOC(=O)c1sc(=S)n(-c2cc(OC)ccc2OC)c1N,6.58
8,CSc1nc2nccc(/C=C\c3ccccc3)n2n1,-5.9
9,CSc1cc(C)nc(NC(C)=O)n1,13.1
10,O=C(Cc1ccc(Cl)cc1)NNC(=O)C1CC=CCC1C(=O)O (centres unmarked),16.4
11,CN(C)c1cc(-c2ccc(Cl)cc2Cl)oc(=O)c1Cl,8.27
12,Cc1cccc(NC(=O)C2CC3CCC2C3)c1C (centres unmarked),11.7
13,Cc1ccc(NC(=O)c2ccc(=O)[nH]n2)cc1S(=O)(=O)Nc1ccccc1Cl,13.8
14,O=C1COc2ccc(C(=O)CSc3nnc(Cc4ccccc4)o3)cc2N1,12.3
15,O=C(Sc1ccc(Cl)cc1)c1cccc(Cn2cc(C(F)(F)F)ccc2=O)c1,8.69
16,Cc1c(NC(=O)CSc2ccc3ccccc3n2)c(=O)n(-c2ccccc2)n1C,2.24
17,CCOC(=O)N1CCN(S(=O)(=O)c2cc([N+](=O)[O-])ccc2C)CC1,7.31
18,Cc1ccc(Cc2cnc(NC(=O)/C(C#N)=C/c3ccc(-c4cccc([N+](=O)[O-])c4)o3)s2)cc1,8.41
19,CCOc1ccc(/C=N/NC(=O)CN2CCCCCCC2)cc1,-15.7
20,Cc1cccc(C(=O)N2CCNC(=O)C2CC(=O)Nc2cccc(Cl)c2)c1 (centres unmarked),10.2
21,C/C=C/c1ccc(OCCN2CCc3ccccc3C2)c(OC)c1,-20.8
22,Cc1ccc(NC(=O)CN(C)C(=O)c2cccc(S(=O)(=O)NCc3ccccc3)c2)cc1,-7.69
23,O=C(NCCC1CCCCN1S(=O)(=O)c1ccc(F)cc1)C(=O)Nc1ccccc1 (centres unmarked),7.03

row,Structure (SMILES),"hERG current change (%, negative = inhibition) at 1uM [%]"
1,COC(=O)c1ccc(COC(=O)C2CCN(S(=O)(=O)c3ccc(C)c(C)c3)CC2)o1,19.6
2,O=C(NCC1CCCN1S(=O)(=O)c1ccccc1)c1cccc(Cl)c1 (centres unmarked),-6.54
3,O=c1[nH]nc(-c2ccc(NCCO)c([N+](=O)[O-])c2)c2ccccc12,19
4,CC(C)=CCOc1ccc([C@@H]2COc3c(ccc4c3C=CC(C)(C)O4)C2)c(O)c1,14.9
5,Cc1nc(-c2ccc(-n3nncc3-c3ccco3)cc2)cs1,7.29
6,COc1ccc(C23CC4CC(CC(C(=O)O)(C4)C2)C3)c(F)c1,12.1
7,O=C(CNc1ccc2ccccc2c1)N/N=C/c1ccc([N+](=O)[O-])o1,5.59
8,CCC(=O)Nc1c2c(nn1-c1ccc(OC)cc1)CS(=O)C2 (centres unmarked),11
9,CCOC(=O)Cc1cnc(NC(=O)CSc2nc(N)cc(N)n2)s1,5.09
10,NC(=O)CN1C(=O)C(=O)N(Cc2ccc(Cl)cc2)C1=O,11.6
11,COc1ccc(N/N=C(C)/C(=N/O)C(=O)Nc2ccccc2)cc1,5.2
12,Cc1ccc(NC(=S)N2CCn3cccc3C2c2cccnc2)cc1 (centres unmarked),-2.45
13,COc1ccccc1NC(=O)c1ccc(CS(=O)(=O)c2ccc(C)cc2)cc1,0.759
14,CN(C)CCN1C(=O)C2C3C=CC(C3)C2C1=O (centres unmarked),15.4
15,Cc1ccc(NC2=NC(c3ccc(F)cc3)n3c(nc(C)cc3=O)N2)c(C)c1 (centres unmarked),15.2
16,COc1ccc(C(=O)c2sc3nc(-c4ccc(OC)cc4)ccc3c2N)cc1,8.98
17,O=C(CCc1nnc2ccc(N3CCCCC3)nn12)NCC1CCN(Cc2ccc(F)cc2)CC1,14.3
18,CCOc1ccc(C(=O)Nc2c3c(nn2-c2ccc(F)cc2)CS(=O)C3)cc1 (centres unmarked),5.83
19,CCc1ccc(NC(=O)NNC(=O)CCc2ccccc2)cc1,11.4
20,Cc1[nH]nc2nc(SCC(=O)NCCC3=CCCCC3)n(-c3ccc(Br)cc3)c(=N)c12,3.07
21,CSc1nnc([C@@H](N)Cc2c[nH]c3ccccc23)o1.Cl,9.48
22,CC(C)(C)NC(=O)COC(=O)c1nsc(Cl)c1Cl,13.2
23,Cc1nc2ncnn2c(N2CCN(C(c3ccccc3)c3ccccc3)CC2)c1C,-10.9

row,Structure (SMILES),"hERG current change (%, negative = inhibition) at 1uM [%]"
1,COc1ccc(C2Nc3ccccc3C(=O)N2Cc2ccccc2)cc1COc1ccccn1 (centres unmarked),-7.32
2,CCOc1ccc(C(c2c(C)[nH][nH]c2=O)c2c(C)[nH][nH]c2=O)cc1OC,6.76
3,CC(=O)c1ccc(-n2ccnc2)cc1,7.14
4,CCN(CC)S(=O)(=O)c1cc(-c2nnc(-c3ccc(Br)cc3)o2)ccc1Br,13.7
5,Cc1ccccc1-n1c(C)cc(/C=C(\C#N)C(=O)NCC2CCCO2)c1C (centres unmarked),5.1
6,Nc1cc(=O)[nH]c(SC/C=C/c2ccccc2)n1,9.32
7,Cc1ccc(C(=O)OCC(=O)N2CCC(c3ccccc3)=N2)c(C)c1,7.04
8,NC(=S)NNC(=O)[C@@H]1CCCC[C@@H]1C(=O)O,26.8
9,N#CCCn1cc(/C=N/O)c(-c2ccccc2)n1,-1.87
10,COc1ccccc1OCCNC(=O)CNC(=O)c1ccc(C(C)(C)C)cc1,-8.23
11,Cc1ccnc(Nc2nc(-c3ccc(F)cc3)cs2)c1,15.7
12,CCOC(=O)CCCCC(=O)c1[nH]c(=O)[nH]c1Cn1cnc2ccccc21,9.51
13,CCc1ccc2nc(NC(=O)CSCc3c(C)noc3C)sc2c1,-5.3
14,CCc1c(O)nc(SCC(=O)N2CCOCC2)n(-c2ccccc2)c1=O,16
15,COC(=O)CC1(c2ccc(OC)cc2)C(=O)c2ccccc2C1=O,8.75
16,NC(=O)c1cc(S(=O)(=O)Nc2ccccc2)cs1,13.6
17,COCCNC(=O)c1cc2cc(Br)cc(Br)c2oc1=O,20.2
18,Nc1nc(CSc2nnnn2-c2ccc(F)c(Cl)c2)nc(N2CCOCC2)n1,1.76
19,CC1CCCCC1NC(=O)c1c(O)nc2ccccn2c1=O (centres unmarked),5.38
20,O=C(CCN1C(=O)c2ccccc2C1=O)Nc1sc2c(c1C(=O)NCc1ccco1)CCCC2,-2.26
